About 550 (1.1%) of roughly 48,000 compounds were called active. Roughly 4% stayed inconclusive and do not appear here. Rule as the data show it: active = potency below about 15 µM; inconclusive = mostly about 16 µM to 33 µM; inactive = weaker than that. Some of the results follow.
The compounds below were run against Lysosomal acid glucosylceramidase (Homo sapiens) (UniProt P04062) (assay: Glucocerebrosidase). Conditions: purified enzyme, resorufin glucoside fluorescence (screen aimed at inhibitors), 20 min; series mostly up to 77 µM.
Chain of UniProt P04062 (P04062 whole entry, looked up): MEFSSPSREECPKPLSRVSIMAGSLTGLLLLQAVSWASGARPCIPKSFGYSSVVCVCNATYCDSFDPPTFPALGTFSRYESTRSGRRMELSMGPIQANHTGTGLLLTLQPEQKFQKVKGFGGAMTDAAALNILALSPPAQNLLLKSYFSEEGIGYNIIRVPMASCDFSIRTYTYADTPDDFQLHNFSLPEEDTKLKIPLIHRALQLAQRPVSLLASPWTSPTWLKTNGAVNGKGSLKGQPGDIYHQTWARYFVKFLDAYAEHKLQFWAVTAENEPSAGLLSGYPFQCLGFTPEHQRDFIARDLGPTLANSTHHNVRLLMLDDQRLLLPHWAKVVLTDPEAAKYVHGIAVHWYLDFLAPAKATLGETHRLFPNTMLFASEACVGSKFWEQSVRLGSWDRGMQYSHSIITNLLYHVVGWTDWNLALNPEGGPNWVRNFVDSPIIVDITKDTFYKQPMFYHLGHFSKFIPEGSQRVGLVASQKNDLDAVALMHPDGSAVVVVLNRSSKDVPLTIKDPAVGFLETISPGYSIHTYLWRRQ
Outline: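 Wild-type enzyme at 0.2 nM final in 50mM citric acid/KH2PO4, 10mM sodium taurocholate, 0.01% tween-20, pH 5.9, with resorufin beta-D-glucopyranoside at 30 uM final. Compounds titrated, 20 min at RT, red fluorescence read; AC50 from titration.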
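Also: the screen sought inhibitors.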
Potency is read from the fitted curve at half-maximal effect.

Potency, inactive:
CC1Cn2c(CCc3ccccc3)nnc2S1 (centres undefined) > 76.9 µM
CCOC(=O)Nc1ccc(C(=O)NCC2CCCO2)cc1 (centres undefined) > 76.9 µM
Cn1c(SCC(=O)N2CCOCC2)nc2cccnc21 > 76.9 µM
Cn1c(SCC(=O)Nc2cccc(O)c2)nnc1-c1ccc(S(=O)(=O)N2CCOCC2)cc1 > 76.9 µM
CCn1c2ccccc2c2nnc(SCC(=O)Nc3ncccn3)nc21 > 76.9 µM
Cc1ccc(NC2=Nc3ccccc3CS2)cc1 > 76.9 µM
COc1ccc(N2C(=O)CC(N3CCN(S(=O)(=O)c4c(F)cccc4F)CC3)C2=O)cc1OC (centres undefined) > 76.9 µM
O=C(NS(=O)(=O)c1ccccc1Cl)c1ccc[nH]1 > 76.9 µM
CCn1c(=O)cc(O)c2c(=O)n(C)c(=O)n(C)c21 > 76.9 µM
C=C(C)c1cccc(C(C)(C)NC(=O)N2CC(C)OC(C)C2)c1 (centres undefined) > 76.9 µM
Cc1ccc(NC(=O)CCNS(=O)(=O)c2ccc3c(c2)oc(=O)n3C)cc1 > 76.9 µM
CSc1nc(-c2ccco2)nn1S(C)(=O)=O > 76.9 µM
COc1ccc(-n2c(=O)[nH]cc(C(=O)Nc3ccc(NC(C)=O)cc3)c2=O)cc1 > 76.9 µM
CCCNc1nc2c(c(=O)n(C)c(=O)n2C)n1CCC(C)C > 76.9 µM
Cc1ccc(NC(=O)CCSc2nnc(-c3ccco3)o2)cc1 > 76.9 µM
CC(=O)N1CCC(C(=O)Nc2ccccc2)(N(Cc2ccccc2)C(=O)c2cccnc2)CC1 > 76.9 µM
O=C(CCCNS(=O)(=O)c1cccc2nsnc12)NCc1ccc(Cl)cc1 > 76.9 µM
COc1ccc(NC(=O)c2ccco2)cc1NC(=O)c1ccc(Br)o1 > 76.9 µM
FC(F)(F)c1cccc(N2Cc3ccccc3C2)c1 > 76.9 µM
O=C(O)CC1CCC(=C(Cl)Cl)C1 (centres undefined) > 76.9 µM
COc1ccccc1NC(=O)Cc1cccs1 > 76.9 µM
CCOC(=O)NC(=O)CSc1nc2ccc(OCC)cc2[nH]1 > 76.9 µM
COc1ccc2oc(C(=O)C3CC3)c(N)c2c1 > 76.9 µM
COCCNC(=O)COc1ccc(Nc2ccccc2)cc1 > 76.9 µM
Cc1ccc(NC(=O)CSc2nc3nc(C)cc(C)c3c(=O)[nH]2)cc1 > 76.9 µM
O=C(O)CCSc1nnnn1-c1ccccc1 > 76.9 µM
Cc1ccc(C(=O)C2=C(O)C(=O)N(CCN(C)C)C2c2ccccn2)o1 (centres undefined) > 76.9 µM
CCCCCc1c(O)nc(SCC(=O)NCC2CCCO2)[nH]c1=O (centres undefined) > 76.9 µM
Cc1nc(CC(=O)O)c(-c2ccccc2)s1 > 76.9 µM
Cc1cc(-n2c(C)cc(C(=O)CSc3nc4ccccc4c(=O)n3Cc3ccco3)c2C)no1 > 76.9 µM
O=C(CCC1COc2ccccc2O1)NCC1COc2ccccc2O1 (centres undefined) > 76.9 µM
Cc1cccc(N(CC(=O)NCc2ccco2)C(=O)CCC(=O)Nc2ccccn2)c1 > 76.9 µM
COc1ccc(CC(=O)NCc2cn3ccsc3n2)cc1 > 76.9 µM
COc1ccc(-c2cc(-c3c(O)c(OC)c4occc4c3OC)[nH]n2)cc1OC > 76.9 µM
O=C1NC(Cc2c[nH]c3ccccc23)C(=O)N1CCOc1ccccc1 (centres undefined) > 76.9 µM
c1ccc(-c2noc(-c3ccco3)n2)nc1 > 76.9 µM
CCOC(=O)c1c(C)c(C(=O)NCc2ccco2)c(C)n1Cc1ccccc1 > 76.9 µM
COc1ccc(C2C3=C(CC(C)(C)CC3=O)Oc3ncn(CCCn4ccnc4)c(=N)c32)cc1 (centres undefined) > 76.9 µM
COc1ccc(-c2nnc3n2N=C(c2ccccc2)CS3)cc1OC > 76.9 µM
COc1ccc(NC(=O)C2C3CCC(C3)C2C(=O)O)cc1OC (centres undefined) > 76.9 µM
O=C(Cn1nc(-c2ccc(Cl)cc2)ccc1=O)NCCCN1CCN(Cc2ccccc2)CC1 > 76.9 µM
COCCn1c(-c2ccc(OC)cc2)cnc1SCC(=O)Nc1cc(C)on1 > 76.9 µM
COC(=O)c1sccc1NC(=O)Cn1cnc2c1c(=O)n(C)c(=O)n2C > 76.9 µM
CCOC(=O)C1CCCN(C(=O)COC(=O)c2cc(=O)c3ccccc3o2)C1 (centres undefined) > 76.9 µM
Cc1cc(C)nc(Nc2ccccc2Br)n1 > 76.9 µM
N=c1n(Cc2ccccc2)c2ccccc2n1CC(O)c1ccco1 (centres undefined) > 76.9 µM
N#Cc1nc(-c2ccc(OCc3ccccc3)cc2)oc1NCCN1CCOCC1
O=C(CCCn1c(=O)[nH]c2cc(Cl)ccc2c1=O)NCCN1CCN(c2ccccc2)CC1 > 76.9 µM
COc1ccc(CNc2oc(-c3cccc4ccccc34)nc2C#N)cc1 > 76.9 µM
CCn1c(COc2ccc(Cl)cc2)nnc1SCc1ccc(C#N)cc1 > 76.9 µM
COc1ccc(S(=O)(=O)Nc2ccc3c(c2)COC3=O)cc1OC > 76.9 µM
O=C(Cc1cn2ccsc2n1)OCc1ccccc1 > 76.9 µM
CCOC(=O)C1CCN(C(=O)Cn2cc(C#N)c3ccccc32)CC1 > 76.9 µM
COc1ccc(CCNC(=O)C2CCN(Cc3nc(-c4ccccc4C)oc3C)CC2)cc1OC > 76.9 µM
COc1ccc(C(c2nnnn2C(C)(C)C)N2CCN(C)CC2)cc1OC (centres undefined) > 76.9 µM
COc1ccc(S(=O)(=O)NCCSCc2cccs2)cc1 > 76.9 µM
Cc1ccccc1C(NC(N)=O)c1ccccc1 (centres undefined) > 76.9 µM
O=C(Nc1ccccc1N1CCCCC1)c1ccc2nccnc2c1 > 76.9 µM
COc1cc(NC(=O)Cn2nnc(-c3ccncc3)n2)cc(OC)c1 > 76.9 µM

Reference: PubChem BioAssay AID360 (National Center for Advancing Translational Sciences (NCATS), 2006)
